Hit rate of the full screen: of about 48,000 compounds, about 550 (1.1%) were called active. Inconclusive means that the source gave no clear call. Such entries were picked first, then a sample of the others. Rule as the data show it: active = potency below about 15 µM; inconclusive = mostly about 16 µM to 33 µM; inactive = weaker than that. Potencies of inconclusive entries are left out as doubtful fits.
Each compound was assayed against Lysosomal acid glucosylceramidase (Homo sapiens) (UniProt P04062) (assay: Glucocerebrosidase). Conditions: purified enzyme, resorufin glucoside fluorescence (screen aimed at inhibitors), 20 min.
UniProt P04062, sequence (P04062 whole entry, looked up): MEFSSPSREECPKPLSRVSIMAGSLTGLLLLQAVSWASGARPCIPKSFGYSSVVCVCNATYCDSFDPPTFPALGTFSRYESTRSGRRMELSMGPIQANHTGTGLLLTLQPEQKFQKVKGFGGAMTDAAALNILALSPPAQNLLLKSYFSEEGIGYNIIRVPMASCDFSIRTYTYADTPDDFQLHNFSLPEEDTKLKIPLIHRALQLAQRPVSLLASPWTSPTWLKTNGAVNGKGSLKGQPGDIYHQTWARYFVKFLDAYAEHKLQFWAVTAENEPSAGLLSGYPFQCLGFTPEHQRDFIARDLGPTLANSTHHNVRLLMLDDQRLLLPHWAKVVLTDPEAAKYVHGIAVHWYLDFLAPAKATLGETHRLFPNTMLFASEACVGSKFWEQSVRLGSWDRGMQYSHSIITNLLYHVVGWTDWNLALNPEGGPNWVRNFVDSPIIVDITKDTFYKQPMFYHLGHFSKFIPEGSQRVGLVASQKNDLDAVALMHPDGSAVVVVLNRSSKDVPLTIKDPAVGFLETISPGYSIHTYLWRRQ
Outline: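 Wild-type enzyme at 0.2 nM final in 50mM citric acid/KH2PO4, 10mM sodium taurocholate, 0.01% tween-20, pH 5.9, with resorufin beta-D-glucopyranoside at 30 uM final. Compounds titrated, 20 min at RT, red fluorescence read; AC50 from titration.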
With CCN(Cc1ccccc1)C(c1cccc(C#N)c1)c1nnnn1C(C)(C)C (stereo not drawn) the Potency was inconclusive [decreasing]. For CNc1ccc(C(O)(C(F)(F)F)C(F)(F)F)cc1C(O)(C(F)(F)F)C(F)(F)F, the Potency was active: 12.6 µM. Cc1cccc(Nc2nc(N)nc(CN3CCN(c4ccccc4F)CC3)n2)c1 was tested, and the Potency was active: 1.43 µM. In the case of CCN1CCN(c2c(Cl)cccc2NC(=O)c2ccc3c(c2)OCCO3)CC1, the Potency is reported as inconclusive [decreasing]. In the case of COC(=O)c1c(C)[nH]c(C(=O)COC(=O)Cc2ccc3c(c2)OCCO3)c1C, the Potency is reported as active: 14.6 µM. For COc1ccc(Cn2nnnc2CN2CCC(c3nc4ccccc4s3)CC2)cc1, the Potency was inconclusive [decreasing]. In the case of Nc1nc(-c2ccc(Cl)cc2Cl)cn1N, the Potency is reported as inconclusive [decreasing]. O=C(Nc1ccc2nc(C3CC3)n(Cc3ccc(F)cc3)c(=O)c2c1)c1ccco1 was tested, and the Potency was inconclusive [decreasing]. With COc1ccc(CCNc2c(C)c(C)nc3ncnn23)cc1 the Potency was inconclusive [decreasing]. COC(=O)c1cc2oc(C)cc2n1CC(=O)N1CCCc2ccccc21 was tested, and the Potency was inconclusive [decreasing]. With CCn1c(SCC(=O)N2c3ccccc3Sc3ccccc32)nnc1-c1ccco1 the Potency was inconclusive [decreasing]. For Cc1cc(N2CCOCC2)nc2ccc(NC(=O)CCC(=O)N3CCCCC3)cc12, the Potency was active: 2.44 µM. For N#Cc1c(N)n(CCCN2CCOCC2)c2nc3ccccc3nc12, the Potency was inconclusive [decreasing]. For Cc1cccc2cc3c(NC(=O)c4ccccn4)nn(C)c3nc12, the Potency was inconclusive [decreasing]. With Cc1ccc(-c2nc(CSCC(=O)NCCN3CCN(Cc4ccccc4)CC3)c(C)o2)cc1 the Potency was inconclusive [decreasing]. For CCC(C)(C)n1nnnc1C(c1cc2cc(C)ccc2[nH]c1=O)N1CCCC1 (stereo not drawn), the Potency was inactive: > 76.9 µM. O=C(NCCCn1ccnc1)c1cn(-c2ccccc2)nc1-c1ccc(F)cc1 was tested, and the Potency was inconclusive [decreasing]. O=C(O)c1ccc(N2C(=O)C3ON(c4ccccc4)C(c4ccccc4F)C3C2=O)cc1 (stereo not drawn) was tested, and the Potency was inconclusive [decreasing]. COCCCN(C(=O)c1ccco1)c1nc(-c2cc(OC)ccc2OC)cs1 was tested, and the Potency was inconclusive [increasing]. With CCc1ccc(NC(=O)C2CC(=O)N=C(N)S2)cc1 (stereo not drawn) the Potency was inconclusive [decreasing]. In the case of N#CCSc1nnc(COc2cccc3ccccc23)n1-c1cccc(Cl)c1, the Potency is reported as inconclusive [decreasing]. In the case of CCOC(=O)N1CCN(c2nc3ccccc3nc2C(C#N)S(=O)(=O)c2ccc(C)cc2)CC1 (stereo not drawn), the Potency is reported as inconclusive [decreasing]. For O=C(CSCc1nc2ccccc2[nH]1)N1CCN(c2ccc(F)cc2)CC1, the Potency was inactive: > 76.9 µM. For COc1cccc(-c2nc(CSCC(=O)N3CCc4ccccc43)c(C)o2)c1, the Potency was inconclusive [decreasing]. With CCOCCCn1c(=N)c(C(=O)NCc2ccc3c(c2)OCO3)cc2c(=O)n3ccccc3nc21 the Potency was inactive: > 76.9 µM. With O=C(CSc1nc2ccccc2s1)NCCCN1CCOCC1 the Potency was inconclusive [decreasing]. In the case of COc1ccc(Cl)cc1NC(=O)CCn1cnc2ccccc2c1=O, the Potency is reported as inconclusive [increasing]. With COc1ccc(CCn2c(N)c(C#N)c3nc4ccccc4nc32)cc1OC the Potency was inconclusive [decreasing]. With Cc1ccc(-c2nnc(CSc3nnc(COc4ccccc4)n3-c3ccccc3)o2)cc1 the Potency was inactive: > 76.9 µM. For C/C(=C\c1ccco1)C1C(C#N)=C(N)OC2=C1C(=O)CC(C)(C)C2 (stereo not drawn), the Potency was inconclusive [decreasing]. For CN(C(=O)CSc1nc2c(c(=O)[nH]1)CCCC2)C1CCCCC1, the Potency was inconclusive [decreasing]. With CCCC(=O)N1CCc2cc(-c3nc(N)sc3C)ccc21 the Potency was inconclusive [decreasing]. For CCC(C)c1ccc2oc(-c3ccc(NC(=O)c4ncn[nH]4)cc3)nc2c1 (stereo not drawn), the Potency was inactive: > 76.9 µM. With CSc1cccc(NC(=O)C2CCCN2S(=O)(=O)c2ccc3c(c2)CCC(=O)N3)c1 (stereo not drawn) the Potency was active: 10.1 µM. With O=C(Nc1nonc1NC(=O)C1CCCCC1)C1CCCCC1 the Potency was inconclusive [decreasing]. With O=C(c1ccccc1F)N1CCN(c2cccc(C(F)(F)F)c2)CC1 the Potency was inactive: > 76.9 µM. For COc1ccc(-c2cc(=O)oc3c(C)c(O)c(CN(C)C)cc23)cc1, the Potency was inactive: > 76.9 µM. In the case of Cc1cc(-n2c(SCC(=O)NCc3cccs3)nc3n[nH]c(C)c3c2=N)ccc1Cl, the Potency is reported as inconclusive [decreasing]. For CCOc1ccc(C2CC(c3ccc(Br)cc3)Nc3nc(N)nn32)cc1 (stereo not drawn), the Potency was inconclusive [decreasing]. In the case of N#CC1=C(N)N(c2ccccc2)C2=C(C(=O)CCC2)C1c1cccs1 (stereo not drawn), the Potency is reported as active: 12.9 µM. With Cc1ccc(C(=O)c2nocc2C(=O)c2cccs2)cc1 the Potency was inconclusive [decreasing]. With CCCC(c1nnnn1Cc1ccc(OC)cc1)N1CCN(c2ccccc2OC)CC1 (stereo not drawn) the Potency was “inactive”. For Clc1ccc(CSc2nnc([C@@H]3CCCN3)o2)cc1, the Potency was inconclusive [decreasing]. In the case of CN(C)CCNc1oc(COc2ccc(-c3ccccc3)cc2)nc1C#N, the Potency is reported as inconclusive [decreasing]. For CN1CCN(S(=O)(=O)c2ccc(NC(=O)Cc3cccs3)cc2)CC1, the Potency was inconclusive [decreasing]. In the case of CCOC(=O)C1=C(C)NC2=C(C(=O)CCC2)C1c1cccnc1 (stereo not drawn), the Potency is reported as inactive: > 76.9 µM. For COCCCNC(=O)C1CCN(C(=O)c2cc3sccc3n2Cc2ccc(F)cc2)CC1, the Potency was inconclusive [decreasing]. For Cc1ccc(S(=O)(=O)N(CC(=O)NCc2ccncc2)C2CCCCC2)cc1, the Potency was inconclusive [decreasing].
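Also: the screen sought inhibitors.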
Potency is read from the fitted curve at half-maximal effect.
